Assay results taken from ChEMBL document CHEMBL4888484, “Replenishing the malaria drug discovery pipeline: Screening and hit evaluation of the MMV Hit Generation Library 1 (HGL1) against asexual blood stage Plasmodium falciparum ,using a nano luciferase reporter read-out” (2022).
Out of some 150,000 compounds screened, about 540 (0.36%) showed an effect of 50% or more. The list shows a part of the results.

System: Plasmodium falciparum
Experiment: Primary screen in NF54 nanoGlo assay, in single point, at 2uM, 72h; a lower Z score goes with more inhibition
Format: functional, Erythrocyte
Conditions: timepoint 72 hour

Compound | % Inhibition | Z score
Cc1cc(C)n([C@@H](C)c2nc(CC(C)C)n[nH]2)n1 | 7% | -1.42
N#Cc1cccc(OS(=O)(=O)c2ccc3c(c2)OCCO3)c1 | -17% | 1.46
COCC1(CNC(=O)[C@H]2CC[C@@H](O)CC2)CCC1 | -9% | 1.2
O=C(COc1ccccc1)n1nc(NCc2ccccc2Cl)nc1NCc1ccccc1Cl | -7% | 0.86
O=C(CC1CC2CCC1C2)N1CCC(O)CC1 (stereo unspecified) | 0% | 0.05
CC(C)C(c1ccccc1)C(NC(=O)OC(C)(C)C)C(=O)O (stereo unspecified) | -8% | 1.41
CC(NCC(C)(O)c1cnn(C)c1)c1cc2c(s1)CCC2 (stereo unspecified) | -16% | 1.58
CC1([C@H]2CCCN(Cc3nsc4ccccc34)C2)OCCO1 | 1% | -0.13
CCOCCCN/C(=N/c1ccc(C(=O)O)cc1)N1CCN(c2ccccc2F)CC1 | -1% | 0.13
O=C1CC2CCC(CN1)N2C(=O)c1ccon1 (stereo unspecified) | -3% | 0.58
Cc1nnc(CC(=O)NC2CC(OCc3ccccc3)C2(C)C)o1 (stereo unspecified) | 29% | -0.73
C[C@H]1CCCCN1C(=O)CN1CCN(CC(=O)NCc2cccs2)CC1 | 0% | -0.01
O=C(CN1C(=O)COc2cccnc21)N1CCO[C@H](c2ccccc2)C1 | -16% | 2.7
COCCN1C[C@@H](Cc2cc(C)nc(C(C)C)n2)CC1=O | 4% | -0.72
C[C@H]1CN(C)c2ccccc2CN1C(=O)NC1CCCC1CNS(C)(=O)=O (stereo partly specified) | 3% | -0.64
COCCc1noc(-c2nn(-c3ccccc3F)c3c2CCC3)n1 | -10% | 0.98
CCc1nc(C)sc1C(=O)N1CCS(=O)(=O)CC1 | -12% | 2.34
CS(=O)(=O)N1CCN(C(=O)c2cc3cc(C(F)(F)F)cnc3[nH]2)CC1 | 6% | -0.99
O=C(N1CCOCC1)N1CC[C@H](Oc2ncc(F)cn2)C1 | -11% | 1.65
CCOc1cccc(-n2cc(-c3ccccc3)nc2NC(=O)CN(CC2CC2)C(=O)c2ccc(C)cc2)c1 | -7% | 1.04
CC(C)(C)c1ccc(Cn2c(C(N)=O)cc3cc(NC(=O)c4ccc(C(C)(C)C)cc4)ccc32)cc1 | -3% | 0.47
Cc1oc2c(c1C(=O)N1CCCC1)CN(Cc1cccc(F)c1)CC2 | 4% | -0.43
Cc1c(CN(C)C(=O)CCN(C)[C@H]2CCN(C)C2)[nH]c2ccccc12 | -15% | 2.12
